Data published in patent publication US20250041437A1, “HUMANIZED MUC1 ANTIBODY AND ANTIBODY DRUG CONJUGATE” (Sun Pharma Advanced Research Company Limited, priority 2023, published 2025).

Experiments:
MCF7 derived xenograft = conditions: mouse, in vivo
SKOV3 derived xenograft = conditions: mouse, in vivo
HT-29 cells = assay: Growth inhibition of human cancer cell lines, HT-29; type: cell-based; conditions: HT-29, no MUC1 expressing
Protocol: (§1) Human cancer cell lines (such as Colo357, HT29, SKOV3, BxPC3 and T47D) were seeded at 5000 cells/well in a 96-well plate flat bottom clear plate and allowed to adhere overnight. Next day, antibody/ADCs were added to these cells at the mentioned concentration or at a mentioned concentration range. Post 5-7 days of treatment, 20 μl of presto blue dye was added to wells and absorbance was recorded at 570 nm (600 nm reference wavelength). Percent survival was calculated against wells containing untreated cells in complete media and IC50 was calculated in Graphpad Prism.

SKOV-3 cells = assay: Growth inhibition of human cancer cell lines, SKOV-3; type: cell-based; conditions: SKOV-3, moderate MUC1 expressing
Protocol: as §1

[1] = target: T1, recombinant human MUC1-SEA (Homo sapiens, UniProt P15941); assay: Binding strength by Surface Plasmon Resonance (SPR)
T1 construct: on recombinant human MUC1-SEA on SPR; purchased Acrobiosystems MU1-H52H9
T1 sequence (P15941 1039-1148 limits assumed): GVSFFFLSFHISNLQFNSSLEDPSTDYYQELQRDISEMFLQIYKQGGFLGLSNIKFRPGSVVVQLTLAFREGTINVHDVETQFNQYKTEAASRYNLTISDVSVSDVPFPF
Protocol: Binding strength assessment using Surface Plasmon Resonance (SPR): MUC1 antigen (Acrobiosystems, Cat: MU1-H52H9) was captured on the anti-His immobilized on CM5 chip at 5 μl/min flow rate for 60 s. Post this concentration range of 0-50 nM of antibody or ADC is passed over MUC1 antigen at a flow rate of 30 μl/min flow rate for 120 s, keeping dissociation time of 1800 s at 25°. The dose response generated is evaluated on BIAevaluation software for the calculation of affinity of antibody to antigen as measured by dissociation constant (KD).

[2] = Stability in mouse plasma (MMAE release); type: in vitro ADME; conditions: 48 hours
Protocol: At the end of 48 hours, the MMAE released in human plasma was <5 nM, while in mouse plasma it was 214 nM corresponding to <0.1% and 4.5% MMAE release in human and mouse plasma, respectively.

[3] = system: COLO 357 derived xenograft; conditions: mouse, in vivo
[4] = system: Detroit 562 derived xenograft; conditions: mouse, in vivo
[5] = Single dose pharmacokinetics, COLO357 tumor bearing mouse, IV and IP 10 mg/kg; type: in vivo
[6] = Single dose pharmacokinetics, COLO357 tumor bearing mouse, IV; type: in vivo; conditions: CAB, HM5LM4-ADC 3 mg/kg IV
Protocol: The objective of this study was to evaluate serum, tumor and liver pharmacokinetics of TAB, CAB and uMMAE following 3 mg/kg single IV administration of M5LM4-ADC and pharmacokinetics of MMAE following 0.06 mg/kg single IV administration of MMAE alone in a COLO357 tumor bearing mouse model.
The blood samples were collected from the mouse at 0.083, 0.5, 1, 2, 4, 8, 24, 48, 72, 96, 168 and 336 hours post-dose (n=3 mice/time point; sparse sampling design) through retro-orbital plexuses and serum was immediately harvested. At 24, 48, 72, 96, 168 and 336 hour time-points, the tumor and liver were collected. Analysis of total antibody (TAB) and conjugated antibody (CAB) was done by a fit for purpose ELISA based method and analysis of free payload (MMAE) was done by a fit for purpose LC-MS/MS based method. Pharmacokinetic analysis was performed by the non-compartmental analysis tool of Phoenix WinNonlin® software.

B1: HM5LM4-ADC: humanized IgG anti-MUC1-SEA mAb HM5-LM4 conjugated to MC-Val-Cit-PABC-MMAE (conjugate)
heavy: EIQLVQSGAEVKKPGSSVKVSCKVTGHSITRGSSWHWMRQAPGQGLEWIGYIHYGGGTSYNPSLKSRITITRDTSTNTFYMELSSLRSEDTAFYFCARYSYDITYRWFFDVWGQGTLVTVSSASTKGPSVFPLAPSSKSTSGGTAALGCLVKDYFPEPVTVSWNSGALTSGVHTFPAVLQSSGLYSLSSVVTVPSSSLGTQTYICNVNHKPSNTKVDKRV[gap - human IgG1 Fc]
light: DIQMTQSPSTLSASVGDRVTITCRASQNIGTSIHWYQQKPGKAPKLLIKYASESISGVPSRFSGSGSGTEFTLTISSLQPDDFATYYCQQNNNWPLTFGQGTKVEIKRTVAAPSVFIFPPSDEQLKSGTASVVCLLNNFYPREAKVQWKVDNALQSGNSQESVTEQDSKDSTYSLSSTLTLSKADYEKHKVYACEVTHQGLSSPVTKSFNRGEC
modifications: non-natural residues
notes: humanized IgG anti-MUC1-SEA mAb HM5-LM4 conjugated to MC-Val-Cit-PABC-MMAE
In the case of B1, the “growth of MCF7 xenografts (in words)” value (MCF7 derived xenograft) is reported as “completely inhibited growth”, the tumor regression (MCF7 derived xenograft) is reported as 12±20% and 16±16% and the “tolerability (in words)” value (SKOV3 derived xenograft) is reported as “tolerated well”. The “cytotoxic effect / growth inhibition (in words)” value (HT-29 cells) was “no cytotoxic effect”, the “cytotoxic effect / growth inhibition (in words)” value (SKOV-3 cells) was “no cytotoxic effect” and the Kd ([1]; ADC and unconjugated antibody comparable, read-out: dissociation constant) was ~40 pM. It also gave a kd ([1]; Table 5, single cycle kinetic) of 0.000248 s⁻¹, a ka ([1]; Table 5, single cycle kinetic, antibody vs ADC) of 6.12e+06 M⁻¹ s⁻¹ and a Kd ([1]; Table 5, single cycle kinetic, read-out: KD) of 40.6 pM. The MMAE released ([2]; 5000 nM MMAE equivalent, 37° C.) was 214 nM, the MMAE release [2] was 4.5% and the “tolerability (in words)” value [3] was “tolerated well”. The “tolerability (in words)” value [4] was “tolerated well”, the “CAB and TAB exposure, intraperitoneal higher than intravenous” value ([5]; 10 mg/kg, IP vs IV) was ~2 fold and the “% F” value ([5]; CAB, IP 10 mg/kg, plasma) was 183%. The AUCINF ([5]; CAB, IP 10 mg/kg, plasma) was 42.58 µM·h, the AUClast ([5]; CAB, IP 10 mg/kg, plasma) was 39.971 µM·h and the Cmax ([5]; CAB, IP 10 mg/kg, plasma) was 491 nM. The T1/2 ([5]; CAB, IP 10 mg/kg, plasma) was 84 h, the Tmax ([5]; CAB, IP 10 mg/kg, plasma) was 8 h and the AUCINF ([5]; CAB, IP 10 mg/kg, tumor) was 4.24 µM·h. The AUClast ([5]; CAB, IP 10 mg/kg, tumor) was 2.437 µM·h, the Cmax ([5]; CAB, IP 10 mg/kg, tumor) was 13 nM and the T1/2 ([5]; CAB, IP 10 mg/kg, tumor) was 266 h. It also gave an AUCINF ([5]; CAB, IV 10 mg/kg, plasma) of 23.268 µM·h, an AUClast ([5]; CAB, IV 10 mg/kg, plasma) of 22.9 µM·h and a C0 ([5]; CAB, IV 10 mg/kg, plasma) of 664 nM. For the same molecule, the T1/2 ([5]; CAB, IV 10 mg/kg, plasma) was 57 h, the AUCINF ([5]; CAB, IV 10 mg/kg, tumor) was 3.721 µM·h and the AUClast ([5]; CAB, IV 10 mg/kg, tumor) was 3.156 µM·h. The Cmax ([5]; CAB, IV 10 mg/kg, tumor) was 15 nM, the T1/2 ([5]; CAB, IV 10 mg/kg, tumor) was 112 h and the “% F” value ([5]; TAB, IP 10 mg/kg, plasma) was 224%. For the same molecule, the AUCINF ([5]; TAB, IP 10 mg/kg, plasma) was 84.403 µM·h, the AUClast ([5]; TAB, IP 10 mg/kg, plasma) was 67.409 µM·h and the Cmax ([5]; TAB, IP 10 mg/kg, plasma) was 761 nM. For the same molecule, the T1/2 ([5]; TAB, IP 10 mg/kg, plasma) was 155 h, the Tmax ([5]; TAB, IP 10 mg/kg, plasma) was 8 h and the AUClast ([5]; TAB, IP 10 mg/kg, tumor) was 5.353 µM·h. The Cmax ([5]; TAB, IP 10 mg/kg, tumor) was 25 nM, the AUCINF ([5]; TAB, IV 10 mg/kg, plasma) was 37.755 µM·h and the AUClast ([5]; TAB, IV 10 mg/kg, plasma) was 31.235 µM·h. For the same molecule, the C0 ([5]; TAB, IV 10 mg/kg, plasma) was 813 nM, the T1/2 ([5]; TAB, IV 10 mg/kg, plasma) was 135 h and the AUClast ([5]; TAB, IV 10 mg/kg, tumor) was 4.847 µM·h. For the same molecule, the Cmax ([5]; TAB, IV 10 mg/kg, tumor) was 20 nM, the “% F” value ([5]; uMMAE, IP 10 mg/kg, plasma) was 98% and the AUCINF ([5]; uMMAE, IP 10 mg/kg, plasma) was 0.132 µM·h. It also gave an AUClast ([5]; uMMAE, IP 10 mg/kg, plasma) of 0.115 µM·h, a Cmax ([5]; uMMAE, IP 10 mg/kg, plasma) of 3.3 nM and a T1/2 ([5]; uMMAE, IP 10 mg/kg, plasma) of 34 h. It also gave a Tmax ([5]; uMMAE, IP 10 mg/kg, plasma) of 4 h, an AUCINF ([5]; uMMAE, IP 10 mg/kg, tumor) of 44.127 µM·h and an AUClast ([5]; uMMAE, IP 10 mg/kg, tumor) of 42.947 µM·h. The Cmax ([5]; uMMAE, IP 10 mg/kg, tumor) was 299 nM, the T1/2 ([5]; uMMAE, IP 10 mg/kg, tumor) was 59 h and the AUCINF ([5]; uMMAE, IV 10 mg/kg, plasma) was 0.134 µM·h. It also gave an AUClast ([5]; uMMAE, IV 10 mg/kg, plasma) of 0.122 µM·h, a C0 ([5]; uMMAE, IV 10 mg/kg, plasma) of 19 nM and a T1/2 ([5]; uMMAE, IV 10 mg/kg, plasma) of 51 h. The AUCINF ([5]; uMMAE, IV 10 mg/kg, tumor) was 50.009 µM·h, the AUClast ([5]; uMMAE, IV 10 mg/kg, tumor) was 48.87 µM·h and the Cmax ([5]; uMMAE, IV 10 mg/kg, tumor) was 334 nM. For the same molecule, the T1/2 ([5]; uMMAE, IV 10 mg/kg, tumor) was 63 h, the AUC0-336 ([6]; liver) was 0.228 µM·h and the Cmax ([6]; liver) was 2.6 nM. For the same molecule, the T1/2 ([6]; liver) was 59 h, the AUC0-24 ([6]; serum) was 4.862 µM·h and the AUC0-336 ([6]; serum) was 9.196 µM·h.

Values joined by “and” are separate entries in the source; they are usually repeats but may differ in a detail not shown here. Equal values may be shown once. Read-outs that look alike come from different tables or passages of the source.
